Screen size: about 310,000 compounds; about 14,000 (4.5%) showed an effect of 50% or more. The effect is printed as a negative number. The list shows a part of the results.
biological target: human ether-à-go-go-related gene (hERG) potassium channel (human, UniProt Q12809); experiment: primary screen, population patch clamp on CHO cells stably expressing hERG
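Also: peak tail current of the secondary pulse compared with the same well before compound.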

Chain of human ether-à-go-go-related gene (hERG) potassium channel (Q12809 whole entry, looked up): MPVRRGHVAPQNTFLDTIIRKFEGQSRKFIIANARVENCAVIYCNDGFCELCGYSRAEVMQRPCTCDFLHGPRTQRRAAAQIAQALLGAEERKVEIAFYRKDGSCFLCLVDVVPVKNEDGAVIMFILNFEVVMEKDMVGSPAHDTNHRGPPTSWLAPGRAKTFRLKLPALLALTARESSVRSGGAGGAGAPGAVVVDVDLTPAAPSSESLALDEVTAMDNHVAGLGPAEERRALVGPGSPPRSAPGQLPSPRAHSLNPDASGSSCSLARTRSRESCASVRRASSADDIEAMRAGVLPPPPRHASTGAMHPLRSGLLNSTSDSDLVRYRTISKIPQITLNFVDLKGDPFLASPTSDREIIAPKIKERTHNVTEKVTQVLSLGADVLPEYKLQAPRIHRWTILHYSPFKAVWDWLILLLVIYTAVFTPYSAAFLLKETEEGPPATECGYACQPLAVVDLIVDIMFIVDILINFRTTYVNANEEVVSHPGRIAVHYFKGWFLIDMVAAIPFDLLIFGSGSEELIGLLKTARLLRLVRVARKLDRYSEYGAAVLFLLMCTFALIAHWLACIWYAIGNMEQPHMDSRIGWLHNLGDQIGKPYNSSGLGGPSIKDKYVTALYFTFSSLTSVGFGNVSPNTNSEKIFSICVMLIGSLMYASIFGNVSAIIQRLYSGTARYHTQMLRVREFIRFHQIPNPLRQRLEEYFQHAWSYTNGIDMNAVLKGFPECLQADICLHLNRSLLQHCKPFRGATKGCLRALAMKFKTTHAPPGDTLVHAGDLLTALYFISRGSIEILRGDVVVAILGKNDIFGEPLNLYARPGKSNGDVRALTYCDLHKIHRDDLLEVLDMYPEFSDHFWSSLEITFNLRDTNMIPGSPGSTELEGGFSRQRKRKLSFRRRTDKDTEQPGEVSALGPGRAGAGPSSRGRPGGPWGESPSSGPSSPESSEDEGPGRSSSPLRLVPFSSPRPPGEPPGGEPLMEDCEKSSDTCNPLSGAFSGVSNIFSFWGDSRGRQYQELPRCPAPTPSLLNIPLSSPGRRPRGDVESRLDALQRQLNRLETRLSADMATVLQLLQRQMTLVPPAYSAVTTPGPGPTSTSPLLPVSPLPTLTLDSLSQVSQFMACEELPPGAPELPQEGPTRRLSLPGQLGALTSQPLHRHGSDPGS

| Compound | hERG current change (%, negative = inhibition) at 10uM [%] |
| --- | --- |
| O=C(/C=C\c1ccccc1OC(=O)c1ccccc1F)c1cc2ccccc2o1 | -3.12 |
| COc1ccc(-c2ccc(=O)[nH]n2)cc1 | -5.84 |
| CCCCN1C(=O)/C(=C(/C#N)C(=O)N2CCCC2)c2ccccc21 | -5.69 |
| CS(=O)(=O)N(CC(=O)N1CCOCC1)c1ccccc1Br | 18 |
| CCOC(=O)c1cc(-c2ccc(C)cc2)nc2nc(SC)[nH]c(=O)c12 | 10.3 |
| CC(NC(=O)CSc1nnc(-c2cccc(S(=O)(=O)N3CCCCC3)c2)o1)C12CC3CC(CC(C3)C1)C2 (stereo not shown) | 4.04 |
| O=C(O)COc1ccc(/C=N/NC(=O)c2ccccc2Br)cc1 | 24.2 |
| CCOC(=O)Cn1nnnc1C(C(C)C)N(Cc1cccs1)Cc1cc2cc(C)ccc2[nH]c1=O (stereo not shown) | -5.17 |
| Cc1cc(-c2ccc(C)c(S(=O)(=O)NCc3ccc(OC(C)C)cc3)c2)on1 | -15.8 |
| NC(=O)C1CC(=O)N(c2ccc(OCc3ccc([N+](=O)[O-])cc3)cc2)C1 (stereo not shown) | -30.8 |
| COCCNC(=O)C1Cc2cc(S(=O)(=O)N3CCCC3)ccc2N1C(C)=O (stereo not shown) | 17.4 |
| O=C(Nc1nc(-c2ccccc2Cl)cs1)c1cccnc1 | -3.03 |
| Cc1[nH]c2ccccc2c1C(=O)CN1CCSCC1 | 5.84 |
| Cc1cc(NC(=O)CO/N=C/c2ccc3c(c2)OCO3)ccc1Br | 30.4 |
| C/C(=N\NC(=O)c1cccnc1)c1ccc(OC2OCCOC2Oc2ccc(/C(C)=N/NC(=O)c3cccnc3)cc2)cc1 (stereo not shown) | 8.81 |
| Cc1ccc(S(=O)(=O)c2cc3c(=O)n4ccccc4nc3n(Cc3ccco3)c2=N)cc1C | -4.4 |
| COc1ccc(S(=O)(=O)N2CCOCC2)cc1NC(=O)COc1ccccc1OC | 22.3 |
| O=C(C1=C[C@H](C2CC2)C[C@H](OCc2ccc(CO)cc2)O1)N1CCN(Cc2ccc3c(c2)OCO3)CC1 | -57.8 |
| Cc1nn2cnnc2c(C)c1Cc1ccc(Cl)cc1 | -11.9 |
| COc1ccccc1N1CCN(C(=O)c2ccc(C(C)(C)C)cc2)CC1 | -18.6 |
| Cc1cc(C)n(-c2nc(NCCN(C)C)c3c4c(sc3n2)COC(C)(C)C4)n1 | -32.7 |
| Cc1ccc(CCN2CC(C(=O)NCc3ccco3)CC2=O)cc1 (stereo not shown) | -3.02 |
| O=C(Cn1nc(-c2ccccc2)c2ccccc2c1=O)Nc1ccc(O)cc1 | 19.3 |
| Cc1ccc(NS(=O)(=O)c2ccc(Cl)s2)cc1S(=O)(=O)N(C)C | -2.76 |
| CCCc1cc(C(=O)NNC(=S)NC(C)c2ccccc2)cs1 (stereo not shown) | -1.15 |
| CN(Cc1cccc(Cl)c1Cl)CC(O)COc1ccccc1.O=C(O)C(=O)O (stereo not shown) | -12 |
| C=CCn1c(N/N=C/c2ccc(O)cc2)nc2ccccc2c1=O | -17.9 |
| CCn1c(Cc2ccccc2)nnc1SCC(=O)Nc1ccccc1F | -5.46 |

| Compound | hERG current change (%, negative = inhibition) at 10uM [%] |
| --- | --- |
| COc1ccc(CCNC(=O)C(=O)NCc2ccccn2)cc1 | -5.07 |
| O=C1c2ccccc2CCC1C(O)c1ccccn1 (stereo not shown) | 17.4 |
| CC(=O)N(C1=C(N)C(=O)c2ccccc2C1=O)c1ccccc1 | 6.29 |
| Cc1nc2ccccc2cc1C(=O)NCc1ccco1 | 2.24 |
| O=C(CCCN1C(=O)c2ccccc2C1=O)Nc1nc2ccccc2[nH]1 | 3.32 |
| COC(=O)C1CCN(C(=O)CN2C(=O)c3ccccc3S2(=O)=O)CC1 | 14.1 |
| NNC(=O)c1nc(-c2ccccc2)n2c1CCCCC2 | -0.541 |
| Cc1nc(N2CCN(C(=O)c3ccco3)CC2)[nH]c(=O)c1C | 24.1 |
| Cc1ccc(NC(=S)N(CCCN2CCOCC2)Cc2cccnc2)cc1C | 7.44 |
| CCN(CC)C(=O)N[C@H]1C[C@@H]2c3cccc4[nH]cc(c34)C[C@H]2N(C)C1 | -12.1 |
| COC(=O)C(Cc1ccccc1)NC(=O)CCCC(=O)NCc1cccc(OC)c1 (stereo not shown) | 7.09 |
| COc1ccc(C(=O)CSc2nc(C)cc(C)n2)cc1C | -29.1 |
| Fc1cc(NCc2ccccc2)nc(NCc2ccccc2)n1 | 8.4 |
| Cc1ccnc(NC(=O)c2cccc(S(=O)(=O)N3CCN(c4ccccc4)CC3)c2)c1 | -12.4 |
| COC(=O)CCCC1=CC2=C(c3ccccc3)C(=O)C(C)(OC(=O)C3CCCC3)C(=O)C2=CN1C1CCCCC1 (stereo not shown) | -15.5 |
| COc1ccc(NS(=O)(=O)c2ccc3oc(SCc4ccc(F)cc4)nc3c2)cc1 | -1.57 |
| O=C(NC1=NCCS1)c1ccc(Cl)c(S(=O)(=O)N2CCCCCC2)c1 | -9.89 |
| CC(C)OC(=O)c1ccc(N2C(=O)C3CC=CCC3C2=O)cc1 (stereo not shown) | 19.9 |
| CCCC1S/C(=N/N=C/c2ccco2)NC1=O (stereo not shown) | -9.19 |
| Nc1[nH]c(N=NC(=O)c2ccccc2O)c2ccccc12 | -34.8 |
| Cc1cc(C(=O)NNc2c(Cl)cccc2Cl)no1 | 3.46 |
| COc1cc(NC(=O)COc2ccccc2Cl)ccc1NC(=O)c1cccs1 | -12.1 |
| COc1ccc(CCNc2oc(Cc3ccccc3)nc2C#N)cc1OC | -34.9 |
| Cc1ccc(S(=O)(=O)Nc2cc(Cl)ccc2-n2cncn2)cc1 | 15.1 |
| Cc1cccc(-c2onc3ccc(C(=O)/C=C/N(C)C)cc23)c1 | -42 |
| O=C(COc1ccccc1)NS(=O)(=O)c1ccccc1 | 2.17 |
| Cc1cc(C)n(-c2nc3ccccc3nc2N2CCN(C(=O)c3ccc(Cl)cc3)CC2)n1 | -45.7 |
